# Data: the supplement of paper PMC8728848
# The list shows a part of the results.
# B1: MGL1 (Mus musculus), P49300 (protein)
# chain: MIYENLQNSRIEEKTQEPGKAPSQSFLWRILSWTHLLLFSLGLSLLLLVVVSVIGSQNSQLRRDLGTLRATLDNTTSKIKAEFQSLDSRADSFEKGISSLKVDVEDHRQELQAGRDLSQKVTSLESTVEKREQALKTDLSDLTDHVQQLRKDLKALTCQLANLKNNGSEVACCPLHWTEHEGSCYWFSESEKSWPEADKYCRLENSHLVVVNSLEEQNFLQNRLANVVSWIGLTDQNGPWRWVDGTDFEKGFKNWAPLQPDNWFGHGLGGGEDCAHITTGGPWNDDVCQRTFRWICEMKLAKES
# Legend:
# Experiment in all cases: glycan array binding signal (z-score within array); higher = stronger binding
# Conditions in all cases: glycan notation: IUPAC condensed, linker removed
# [1] = molecular target: Fuc(a1-2)[Gal(a1-3)]Gal(b1-3)GlcNAc(b1-3)GalNAc
# In short: (§1)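 Arrays were curated from the Consortium for Functional Glycomics database, 3228 in total, and kept only where the protein sequence was available. Binding is expressed as a within-array Z-score. This score was averaged across arrays of the same protein sequence at different concentrations or buffers and across linkers, and negative values can be read as non-binding.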
# [2] = molecular target: Fuc(a1-2)[Gal(a1-3)]Gal(b1-3)GlcNAc(b1-6)GalNAc
# In short: as §1
# [3] = molecular target: Fuc(a1-2)[Gal(a1-3)]Gal(b1-4)Glc
# In short: as §1
# [4] = molecular target: Fuc(a1-2)[Gal(a1-3)]Gal(b1-4)GlcNAc
# In short: as §1
# [5] = molecular target: Fuc(a1-2)[Gal(a1-3)]Gal(b1-4)GlcNAc(b1-2)Man
# In short: as §1
# [6] = molecular target: Fuc(a1-2)[Gal(a1-3)]Gal(b1-4)GlcNAc(b1-2)Man(a1-3)[Fuc(a1-2)[Gal(a1-3)]Gal(b1-4)GlcNAc(b1-2)Man(a1-6)]Man(b1-4)GlcNAc(b1-4)GlcNAc
# In short: as §1
# [7] = molecular target: Fuc(a1-2)[Gal(a1-3)]Gal(b1-4)GlcNAc(b1-2)Man(a1-3)[Fuc(a1-2)[Gal(a1-3)]Gal(b1-4)GlcNAc(b1-2)Man(a1-6)]Man(b1-4)GlcNAc(b1-4)[Fuc(a1-6)]GlcNAc
# In short: as §1
# [8] = molecular target: Fuc(a1-2)[Gal(a1-3)]Gal(b1-4)GlcNAc(b1-3)GalNAc
# In short: as §1
# [9] = molecular target: Fuc(a1-2)[Gal(a1-3)]Gal(b1-4)GlcNAc(b1-3)[Fuc(a1-2)[Gal(a1-3)]Gal(b1-4)GlcNAc(b1-6)]GalNAc
# In short: as §1
# [10] = molecular target: Fuc(a1-2)[Gal(a1-3)]Gal(b1-4)GlcNAc(b1-6)GalNAc
# In short: as §1
# [11] = molecular target: Fuc(a1-2)[Gal(a1-3)]Gal(b1-4)[Fuc(a1-3)]Glc
# In short: as §1
# [12] = molecular target: Fuc(a1-2)[Gal(a1-3)]Gal(b1-4)[Fuc(a1-3)]GlcNAc
# In short: as §1
# [13] = molecular target: Fuc(a1-2)[Gal(a1-3)]Gal(b1-4)[Fuc(a1-3)]GlcNAc(b1-3)GalNAc
# In short: as §1
# [14] = molecular target: Fuc(a1-2)[Gal(a1-4)]Gal(b1-4)GalNAc
# In short: as §1
# [15] = molecular target: Fuc(a1-2)[Gal(a1-4)]Gal(b1-4)GlcNAc
# In short: as §1
# [16] = molecular target: Fuc(a1-2)[GalNAc(a1-3)]Gal
# In short: as §1
# [17] = molecular target: Fuc(a1-2)[GalNAc(a1-3)]Gal(b1-3)GalNAc(a1-3)[Fuc(a1-2)]Gal(b1-4)GlcNAc
# In short: as §1
# [18] = molecular target: Fuc(a1-2)[GalNAc(a1-3)]Gal(b1-3)GalNAc(b1-3)Gal(a1-4)Gal(b1-4)Glc
# In short: as §1
# [19] = molecular target: Fuc(a1-2)[GalNAc(a1-3)]Gal(b1-3)GlcNAc
# In short: as §1
# [20] = molecular target: Fuc(a1-2)[GalNAc(a1-3)]Gal(b1-3)GlcNAc(b1-2)Man(a1-3)[Fuc(a1-2)[GalNAc(a1-3)]Gal(b1-3)GlcNAc(b1-2)Man(a1-6)]Man(b1-4)GlcNAc(b1-4)GlcNAc
# In short: as §1
# [21] = molecular target: Fuc(a1-2)[GalNAc(a1-3)]Gal(b1-3)GlcNAc(b1-2)Man(a1-3)[Fuc(a1-2)[GalNAc(a1-3)]Gal(b1-3)GlcNAc(b1-2)Man(a1-6)]Man(b1-4)GlcNAc(b1-4)[Fuc(a1-6)]GlcNAc
# In short: as §1
# [22] = molecular target: Fuc(a1-2)[GalNAc(a1-3)]Gal(b1-3)GlcNAc(b1-3)GalNAc
# In short: as §1
# [23] = molecular target: Fuc(a1-2)[GalNAc(a1-3)]Gal(b1-3)GlcNAc(b1-6)GalNAc
# In short: as §1
# [24] = molecular target: Fuc(a1-2)[GalNAc(a1-3)]Gal(b1-4)Glc
# In short: as §1
# [25] = molecular target: Fuc(a1-2)[GalNAc(a1-3)]Gal(b1-4)GlcNAc
# In short: as §1
# [26] = molecular target: Fuc(a1-2)[GalNAc(a1-3)]Gal(b1-4)GlcNAc(b1-2)Man
# In short: as §1
# [27] = molecular target: Fuc(a1-2)[GalNAc(a1-3)]Gal(b1-4)GlcNAc(b1-2)Man(a1-3)[Fuc(a1-2)[GalNAc(a1-3)]Gal(b1-4)GlcNAc(b1-2)Man(a1-6)]Man(b1-4)GlcNAc(b1-4)GlcNAc
# In short: as §1
# [28] = molecular target: Fuc(a1-2)[GalNAc(a1-3)]Gal(b1-4)GlcNAc(b1-2)Man(a1-3)[Fuc(a1-2)[GalNAc(a1-3)]Gal(b1-4)GlcNAc(b1-2)Man(a1-6)]Man(b1-4)GlcNAc(b1-4)[Fuc(a1-6)]GlcNAc
# In short: as §1
# [29] = molecular target: Fuc(a1-2)[GalNAc(a1-3)]Gal(b1-4)GlcNAc(b1-3)Gal(b1-4)GlcNAc
# In short: as §1
# [30] = molecular target: Fuc(a1-2)[GalNAc(a1-3)]Gal(b1-4)GlcNAc(b1-3)Gal(b1-4)GlcNAc(b1-3)Gal(b1-4)GlcNAc
# In short: as §1
# [31] = molecular target: Fuc(a1-2)[GalNAc(a1-3)]Gal(b1-4)GlcNAc(b1-3)GalNAc
# In short: as §1
# [32] = molecular target: Fuc(a1-2)[GalNAc(a1-3)]Gal(b1-4)GlcNAc(b1-3)[Fuc(a1-2)[GalNAc(a1-3)]Gal(b1-4)GlcNAc(b1-6)]GalNAc
# In short: as §1
# [33] = molecular target: Fuc(a1-2)[GalNAc(a1-3)]Gal(b1-4)GlcNAc(b1-6)GalNAc
# In short: as §1
# [34] = molecular target: Fuc(a1-2)[GalNAc(a1-3)]Gal(b1-4)[Fuc(a1-3)]GlcNAc
# In short: as §1
# [35] = molecular target: Fuc(a1-2)[GalNAc(a1-3)]Gal(b1-4)[Fuc(a1-3)]GlcNAc(b1-3)GalNAc
# In short: as §1
# [36] = molecular target: Fuc(a1-2)[GalNAc(a1-4)]Gal(b1-4)GlcNAc
# In short: as §1
# [37] = molecular target: Fuc(a1-2)[GalNAc(b1-3)]Gal
# In short: as §1
# Fuc(a1-3)GlcNAc = molecular target: Fuc(a1-3)GlcNAc
# In short: as §1
# [38] = molecular target: Fuc(a1-3)[Gal(b1-4)]Glc6S
# In short: as §1
# [39] = molecular target: Fuc(a1-3)[Gal(b1-4)]GlcNAc
# In short: as §1
# [40] = molecular target: Fuc(a1-3)[Gal(b1-4)]GlcNAc(b1-2)Man
# In short: as §1
# [41] = molecular target: Fuc(a1-3)[Gal(b1-4)]GlcNAc(b1-2)Man(a1-3)[Fuc(a1-3)[Gal(b1-4)]GlcNAc(b1-2)Man(a1-6)]Man(b1-4)GlcNAc(b1-4)GlcNAc
# In short: as §1
# [42] = molecular target: Fuc(a1-3)[Gal(b1-4)]GlcNAc(b1-2)Man(a1-3)[Fuc(a1-3)[Gal(b1-4)]GlcNAc(b1-2)Man(a1-6)]Man(b1-4)GlcNAc(b1-4)[Fuc(a1-6)]GlcNAc
# In short: as §1
# [43] = molecular target: Fuc(a1-3)[Gal(b1-4)]GlcNAc(b1-3)Gal(b1-3)[Fuc(a1-4)]GlcNAc
# In short: as §1
# [44] = molecular target: Fuc(a1-3)[Gal(b1-4)]GlcNAc(b1-3)Gal(b1-4)[Fuc(a1-3)]GlcNAc
# In short: as §1
# [45] = molecular target: Fuc(a1-3)[Gal(b1-4)]GlcNAc(b1-3)Gal(b1-4)[Fuc(a1-3)]GlcNAc(b1-3)Gal(b1-4)[Fuc(a1-3)]GlcNAc
# In short: as §1
# [46] = molecular target: Fuc(a1-3)[Gal(b1-4)]GlcNAc(b1-3)GalNAc
# In short: as §1
# [47] = molecular target: Fuc(a1-3)[Gal(b1-4)]GlcNAc(b1-4)Gal(b1-4)[Fuc(a1-3)]GlcNAc
# In short: as §1
# [48] = molecular target: Fuc(a1-3)[Gal(b1-4)]GlcNAc(b1-4)Gal(b1-4)[Fuc(a1-3)]GlcNAc(b1-4)Gal(b1-4)[Fuc(a1-3)]GlcNAc
# In short: as §1
# [49] = molecular target: Fuc(a1-3)[Gal(b1-4)]GlcNAc(b1-6)GalNAc
# In short: as §1
# [50] = molecular target: Fuc(a1-3)[Gal(b1-4)]GlcNAc(b1-6)[Gal(b1-3)GlcNAc(b1-3)]Gal(b1-4)Glc
# In short: as §1
# [51] = molecular target: Fuc(a1-3)[Gal(b1-4)]GlcNAc6S
# In short: as §1
# [52] = molecular target: Fuc(a1-3)[Gal3S(b1-4)]Glc
# In short: as §1
# [53] = molecular target: Fuc(a1-3)[Gal3S(b1-4)]Glc6S
# In short: as §1
# [54] = molecular target: Fuc(a1-3)[Gal3S(b1-4)]GlcNAc
# In short: as §1
# [55] = molecular target: Fuc(a1-3)[Gal3S(b1-4)]GlcNAc6S
# In short: as §1
# [56] = molecular target: Fuc(a1-3)[GalNAc(b1-4)]Gal(b1-4)GlcNAc
# In short: as §1
# [57] = molecular target: Fuc(a1-3)[GalNAc(b1-4)]GlcNAc
# In short: as §1
# [58] = molecular target: Fuc(a1-3)[GalNAc(b1-4)]GlcNAc6S
# In short: as §1
# Fuc(a1-4)GlcNAc = molecular target: Fuc(a1-4)GlcNAc
# In short: as §1
binder,measurement,setting,value
B1,glycan array binding signal (z-score),[1],-0.593
same,glycan array binding signal (z-score),[2],-0.297
same,glycan array binding signal (z-score),[3],-0.017
same,glycan array binding signal (z-score),[4],-0.021
same,glycan array binding signal (z-score),[5],-0.708
same,glycan array binding signal (z-score),[6],-0.615
same,glycan array binding signal (z-score),[7],-1.16
same,glycan array binding signal (z-score),[8],-0.521
same,glycan array binding signal (z-score),[9],-0.466
same,glycan array binding signal (z-score),[10],-0.784
same,glycan array binding signal (z-score),[11],-0.824
same,glycan array binding signal (z-score),[12],-0.593
same,glycan array binding signal (z-score),[13],-0.761
same,glycan array binding signal (z-score),[14],-0.134
same,glycan array binding signal (z-score),[15],1.45
same,glycan array binding signal (z-score),[16],-0.162
same,glycan array binding signal (z-score),[17],-0.3
same,glycan array binding signal (z-score),[18],-0.695
same,glycan array binding signal (z-score),[19],-0.793
same,glycan array binding signal (z-score),[20],-0.274
same,glycan array binding signal (z-score),[21],-0.766
same,glycan array binding signal (z-score),[22],-0.617
same,glycan array binding signal (z-score),[23],-0.413
same,glycan array binding signal (z-score),[24],-0.262
same,glycan array binding signal (z-score),[25],0.264
same,glycan array binding signal (z-score),[26],-0.538
same,glycan array binding signal (z-score),[27],-0.752
same,glycan array binding signal (z-score),[28],0.108
same,glycan array binding signal (z-score),[29],-0.996
same,glycan array binding signal (z-score),[30],-0.048
same,glycan array binding signal (z-score),[31],-0.19
same,glycan array binding signal (z-score),[32],-0.336
same,glycan array binding signal (z-score),[33],0.044
same,glycan array binding signal (z-score),[34],-0.412
same,glycan array binding signal (z-score),[35],0.039
same,glycan array binding signal (z-score),[36],0.106
same,glycan array binding signal (z-score),[37],0.21
same,glycan array binding signal (z-score),Fuc(a1-3)GlcNAc,-0.541
same,glycan array binding signal (z-score),[38],1.19
same,glycan array binding signal (z-score),[39],5.46
same,glycan array binding signal (z-score),[40],-0.622
same,glycan array binding signal (z-score),[41],0.595
same,glycan array binding signal (z-score),[42],-0.48
same,glycan array binding signal (z-score),[43],1.2
same,glycan array binding signal (z-score),[44],3.95
same,glycan array binding signal (z-score),[45],5.1
same,glycan array binding signal (z-score),[46],0.44
same,glycan array binding signal (z-score),[47],2.3
same,glycan array binding signal (z-score),[48],9.12
same,glycan array binding signal (z-score),[49],-0.016
same,glycan array binding signal (z-score),[50],2.27
same,glycan array binding signal (z-score),[51],1.02
same,glycan array binding signal (z-score),[52],0.153
same,glycan array binding signal (z-score),[53],-0.136
same,glycan array binding signal (z-score),[54],-0.18
same,glycan array binding signal (z-score),[55],0.056
same,glycan array binding signal (z-score),[56],-0.145
same,glycan array binding signal (z-score),[57],1.05
same,glycan array binding signal (z-score),[58],0.238
same,glycan array binding signal (z-score),Fuc(a1-4)GlcNAc,0.064
